# According to US10933169B2, “Bone morphogenetic protein pathway activation, compositions for ossification, and methods related thereto” (Emory University, priority 2012, dated 2021):
# Tested on: BMP-induced ALP activity in C2C12 cells
# Assay: BMP-induced alkaline phosphatase (ALP) potentiation assay in C2C12 cells
# Conditions: sub-optimal doses of BMP in the presence or absence of exogenously added noggin, relative to BMP alone control
row,Molecule,Fold-increase of BMP-induced ALP (over BMP alone control) [fold]
1,c1ccc(-n2nnnc2-c2cccc3ccccc23)cc1 [5-(Naphthalen-1-yl)-1-phenyl-1h-tetrazole],2.5
2,"COC(=O)c1c[nH]c2c1-c1cc(C(=O)OCc3ccccc3)n(S(=O)(=O)c3ccc(C)cc3)c1C(=O)C2=O [2-O-Benzyl 8-O-methyl 3-(4-methylphenyl)sulfonyl-4,5-dioxo-6H-pyrrolo[3,2-e]indole-2,8-dicarboxylate]",3.0
3,"O=[N+]([O-])C1C(c2ccccc2)C12c1ccccc1-c1ccccc12 (centres unmarked) [2-Nitro-3-phenylspiro[cyclopropane-1,9′-fluorene]]",4.0
4,"5-Methylbenzo[c]phenanthridin-5-ium-2,3,8,9-tetrol",2.0
5,Cc1ccc(NCCN(C)C)c2c(=O)c3cc(O)ccc3sc12.I [1-[[2-(Dimethylamino)ethyl]amino]-7-hydroxy-4-methyl-9H-thioxanthen-9-one monohydriodide],3.0
